Here are results for 31 molecules from article PMC9911399, “Two distinct binding modes provide the RNA-binding protein RbFox with extraordinary sequence specificity”.

Numbering of substitutions follows the chain as printed; changes in the protein carry UniProt numbers. Some of the results follow.

The chains are these.
B1: AACUGAU (DNA:RNA)
RNA: GGGAGACCGGAAUUCAGAUUGUCCAACUGAUUUAAAUCCCGUCGUAGCCACCA
DNA 1: CAATCTGAATTCCGGTCTCCC
DNA 2: TGGTGGCTACGACGGGATT
B2: CCCUGUU (DNA:RNA)
RNA: B1 RNA with A25C, A26C, A30U
DNA 1: CAATCTGAATTCCGGTCTCCC
DNA 2: TGGTGGCTACGACGGGATT
B3: ACUUUAU (DNA:RNA)
RNA: B1 RNA with A26C, C27U, G29U
DNA 1: CAATCTGAATTCCGGTCTCCC
DNA 2: TGGTGGCTACGACGGGATT
B4: AUCCGAC (DNA:RNA)
RNA: B1 RNA with A26U, U28C, U31C
DNA 1: CAATCTGAATTCCGGTCTCCC
DNA 2: TGGTGGCTACGACGGGATT
B5: AAAGUCG (DNA:RNA)
RNA: B1 RNA with C27A, U28G, G29U, A30C, U31G
DNA 1: CAATCTGAATTCCGGTCTCCC
DNA 2: TGGTGGCTACGACGGGATT
B6: GACUAGU (DNA:RNA)
RNA: B1 RNA with A25G, G29A, A30G
DNA 1: CAATCTGAATTCCGGTCTCCC
DNA 2: TGGTGGCTACGACGGGATT
B7: AGUGGUU (DNA:RNA)
RNA: B1 RNA with A26G, C27U, U28G, A30U
DNA 1: CAATCTGAATTCCGGTCTCCC
DNA 2: TGGTGGCTACGACGGGATT
B8: GCUCUUU (DNA:RNA)
RNA: B1 RNA with A25G, A26C, C27U, U28C, G29U, A30U
DNA 1: CAATCTGAATTCCGGTCTCCC
DNA 2: TGGTGGCTACGACGGGATT
B9: AAAUGCC (DNA:RNA)
RNA: B1 RNA with C27A, A30C, U31C
DNA 1: CAATCTGAATTCCGGTCTCCC
DNA 2: TGGTGGCTACGACGGGATT
B10: AUGACAG (DNA:RNA)
RNA: B1 RNA with A26U, C27G, U28A, G29C, U31G
DNA 1: CAATCTGAATTCCGGTCTCCC
DNA 2: TGGTGGCTACGACGGGATT
B11: UCGCAGG (DNA:RNA)
RNA: GGGAGACCGGAAUUCAGAUUGUCCUCGCAGGUUAAAUCCCGUCGUAGCCACCA
DNA 1: CAATCTGAATTCCGGTCTCCC
DNA 2: TGGTGGCTACGACGGGATT
B12: GGAUUGC (DNA:RNA)
RNA: B1 RNA with A25G, A26G, C27A, G29U, A30G, U31C
DNA 1: CAATCTGAATTCCGGTCTCCC
DNA 2: TGGTGGCTACGACGGGATT
B13: UAGCAGA (DNA:RNA)
RNA: B11 RNA with C26A, G31A
DNA 1: CAATCTGAATTCCGGTCTCCC
DNA 2: TGGTGGCTACGACGGGATT
B14: GAAACCU (DNA:RNA)
RNA: B1 RNA with A25G, C27A, U28A, G29C, A30C
DNA 1: CAATCTGAATTCCGGTCTCCC
DNA 2: TGGTGGCTACGACGGGATT
B15: GGAACUG (DNA:RNA)
RNA: B11 RNA with U25G, C26G, G27A, C28A, A29C, G30U
DNA 1: CAATCTGAATTCCGGTCTCCC
DNA 2: TGGTGGCTACGACGGGATT
B16: AUAGGGA (DNA:RNA)
RNA: B1 RNA with A26U, C27A, U28G, A30G, U31A
DNA 1: CAATCTGAATTCCGGTCTCCC
DNA 2: TGGTGGCTACGACGGGATT
B17: CGACCGC (DNA:RNA)
RNA: B11 RNA with U25C, C26G, G27A, A29C, G31C
DNA 1: CAATCTGAATTCCGGTCTCCC
DNA 2: TGGTGGCTACGACGGGATT
B18: UGCAAAG (DNA:RNA)
RNA: B11 RNA with C26G, G27C, C28A, G30A
DNA 1: CAATCTGAATTCCGGTCTCCC
DNA 2: TGGTGGCTACGACGGGATT
B19: AGUAAAA (DNA:RNA)
RNA: B1 RNA with A26G, C27U, U28A, G29A, U31A
DNA 1: CAATCTGAATTCCGGTCTCCC
DNA 2: TGGTGGCTACGACGGGATT
B20: UGAUGAU (DNA:RNA)
RNA: B1 RNA with A25U, A26G, C27A
DNA 1: CAATCTGAATTCCGGTCTCCC
DNA 2: TGGTGGCTACGACGGGATT
B21: CAAUUUU (DNA:RNA)
RNA: B1 RNA with A25C, C27A, G29U, A30U
DNA 1: CAATCTGAATTCCGGTCTCCC
DNA 2: TGGTGGCTACGACGGGATT
B22: GCCUACA (DNA:RNA)
RNA: B1 RNA with A25G, A26C, G29A, A30C, U31A
DNA 1: CAATCTGAATTCCGGTCTCCC
DNA 2: TGGTGGCTACGACGGGATT
B23: UGCGGGC (DNA:RNA)
RNA: B1 RNA with A25U, A26G, U28G, A30G, U31C
DNA 1: CAATCTGAATTCCGGTCTCCC
DNA 2: TGGTGGCTACGACGGGATT
B24: UGUCCUA (DNA:RNA)
RNA: B11 RNA with C26G, G27U, A29C, G30U, G31A
DNA 1: CAATCTGAATTCCGGTCTCCC
DNA 2: TGGTGGCTACGACGGGATT
B25: AGUCGUC (DNA:RNA)
RNA: B1 RNA with A26G, C27U, U28C, A30U, U31C
DNA 1: CAATCTGAATTCCGGTCTCCC
DNA 2: TGGTGGCTACGACGGGATT
B26: UAUAGCU (DNA:RNA)
RNA: B1 RNA with A25U, C27U, U28A, A30C
DNA 1: CAATCTGAATTCCGGTCTCCC
DNA 2: TGGTGGCTACGACGGGATT
B27: AAUGAAG (DNA:RNA)
RNA: B1 RNA with C27U, U28G, G29A, U31G
DNA 1: CAATCTGAATTCCGGTCTCCC
DNA 2: TGGTGGCTACGACGGGATT
B28: CUGUGCC (DNA:RNA)
RNA: B1 RNA with A25C, A26U, C27G, A30C, U31C
DNA 1: CAATCTGAATTCCGGTCTCCC
DNA 2: TGGTGGCTACGACGGGATT
B29: AGGAAAC (DNA:RNA)
RNA: B1 RNA with A26G, C27G, U28A, G29A, U31C
DNA 1: CAATCTGAATTCCGGTCTCCC
DNA 2: TGGTGGCTACGACGGGATT
B30: UGCGGAA (DNA:RNA)
RNA: B1 RNA with A25U, A26G, U28G, U31A
DNA 1: CAATCTGAATTCCGGTCTCCC
DNA 2: TGGTGGCTACGACGGGATT
B31: CCAUAAU (DNA:RNA)
RNA: B1 RNA with A25C, A26C, C27A, G29A
DNA 1: CAATCTGAATTCCGGTCTCCC
DNA 2: TGGTGGCTACGACGGGATT

The assay concerns the target T1, RBFOX1 RRM (Homo sapiens, UniProt Q9NWB1 109-208).
T1 sequence: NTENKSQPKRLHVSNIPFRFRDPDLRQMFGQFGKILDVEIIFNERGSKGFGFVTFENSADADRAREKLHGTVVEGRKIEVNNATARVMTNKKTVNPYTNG
As to the kind of experiment: EMSA; HiTS-Eq, 1 nM pool, 10 min; buffer printed only for the single-RNA assays: 10 mM Tris pH 7.5, 150 mM NaCl, 3.4 mM EDTA, 0.001% NP-40, 30 C. As to conditions: tags: His6 N-terminal (pET28a); label: 5' 32P. The essentials:
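Purified RbFox RRM, wild type or mutant, was incubated for 10 min in 50 µL with 1 nM of a 5′-radiolabelled RNA pool carrying 7 randomized nucleotides, whose flanks were annealed to DNA oligonucleotides, over a series of increasing protein concentrations. Unbound RNA was resolved on 8% native PAGE, cut out, reverse-transcribed, barcoded by PCR and sequenced on an Illumina HiSeq 2500. Relative association constants were derived from changes in read counts for each RNA species versus the control reaction and normalised to the cognate motif.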
On the technique in general: Mobility shift assays separate free from complexed probe on a gel.
Consider B1, for which the binding signal was 0.00404 KA relative to UGCAUGU.

As for B2, the binding signal was 0.00725 KA relative to UGCAUGU.

Consider B3, for which the binding signal was 0.00113 KA relative to UGCAUGU.

In the case of B4, the binding signal was 0.00467 KA relative to UGCAUGU.

B5: the binding signal is 0.00628 KA relative to UGCAUGU.

As for B6, the binding signal was 0.0156 KA relative to UGCAUGU.

Consider B7, for which the binding signal was 0.0187 KA relative to UGCAUGU.

For B8, the binding signal is 0.0167 KA relative to UGCAUGU.

On to B9, for which the binding signal is 0.00473 KA relative to UGCAUGU.

For B10, the binding signal was 0.00726 KA relative to UGCAUGU.

As to B11, the binding signal was 0.0168 KA relative to UGCAUGU.

B12: the binding signal is 0.0376 KA relative to UGCAUGU.

For the molecule B13, the binding signal is 0.0111 KA relative to UGCAUGU.

For B14, the binding signal is 0.00477 KA relative to UGCAUGU.

On to B15, for which the binding signal was 0.0214 KA relative to UGCAUGU.

On to B16, for which the binding signal was 0.00357 KA relative to UGCAUGU.

On to B17, for which the binding signal is 0.01 KA relative to UGCAUGU.

For B18, the binding signal is 0.0165 KA relative to UGCAUGU.

As for B19, the binding signal is 0.00349 KA relative to UGCAUGU.

As for B20, the binding signal is 0.0214 KA relative to UGCAUGU.

For B21, the binding signal is 0.00147 KA relative to UGCAUGU.

For B22, the binding signal was 0.00989 KA relative to UGCAUGU.

For B23, the binding signal is 0.00732 KA relative to UGCAUGU.

On to B24, for which the binding signal is 0.00708 KA relative to UGCAUGU.

Take B25: the binding signal is 0.0118 KA relative to UGCAUGU.

B26: the binding signal is 0.00579 KA relative to UGCAUGU.

B27: the binding signal is 0.00997 KA relative to UGCAUGU.

B28: the binding signal was 0.0119 KA relative to UGCAUGU.

As to B29, the binding signal is 0.0142 KA relative to UGCAUGU.

In the case of B30, the binding signal was 0.0165 KA relative to UGCAUGU.

Turning to B31, the binding signal is 0.00169 KA relative to UGCAUGU.
